Test results published in PubChem BioAssay AID463173 (ICCB-Longwood Screening Facility, Harvard Medical School, 2010).
Screen size: about 52,000 compounds; about 4,300 (8.3%) were called active. Rule as the data show it: active = survival mostly below about 52% (no sharp cut-off); inactive = mostly above about 56%. The list shows a part of the results.

Each compound was assayed on DeltatarO mutant (assay: growth inhibition of S. aureus wild type versus tarO mutant, primary screen, teichoic acid synthesis inhibitors, RN4220, OD600 (AID 463173)). Conditions: OD600, 18 h, active compounds read low, screened at 18.75 µg/mL (by protocol).

SMILES | survival
CCc1cccc(NC(=O)Cc2nc(-c3ccc(OC)cc3)no2)c1 | inactive: 77%
COCCCNC(=O)c1nn(C)c2c1CS(=O)(=O)c1ccccc1-2 | inactive: 99%
COc1cc(C(=O)NC(c2ccccc2Cl)c2cc(Cl)c3cccnc3c2O)cc(OC)c1OC (centres undefined) | inactive: 85%
CC(C)NC(=O)C1CCN(S(C)(=O)=O)CC1 | inactive: 93%
COc1ccccc1C(=O)Nc1cccc(C(=O)OCc2cc(=O)n3c4c(sc3n2)CCCC4)c1 | inactive: 92%
CCOc1ccc(NC(=O)Cn2c(=O)n(CC3CCC(C(=O)NCCc4ccccc4)CC3)c(=O)c3ccccc32)cc1 (centres undefined) | inactive: 77%
COc1ccc(NC(=O)CSc2oc(-c3ccco3)nc2S(=O)(=O)c2ccc(C)cc2)c(OC)c1 | inactive: 67%
Cc1nc2ccccc2c(=O)n1/N=C1\C(=O)N(C)c2ccccc21 | inactive: 83%
CN(C)S(=O)(=O)c1ccc2c(c1)N(CC(=O)Nc1cccc(C(F)(F)F)c1)C(=O)CS2 | inactive: 75%
Cc1c(CNC(C)CCc2ccccc2)c(C(=O)O)c(C)n1Cc1ccc(F)cc1 (centres undefined) | inactive: 72%
CCOC(=O)c1ccccc1NC(=O)NCc1c(-n2cccc2)sc2c1CCCC2 | inactive: 71%
CCOc1ccc(NC(=O)C(CC(C)C)N2Cc3ccccc3C2=O)cc1 (centres undefined) | inactive: 130%
CC(C)(C)OC(=O)N1CCC(N2CCN(Cc3ccccc3)C(=O)C2=O)CC1 | inactive: 83%
Cc1onc(-c2ccccc2Cl)c1C(=O)Oc1ccccc1F | inactive: 76%
COc1cccc(N2CCN(C(=O)CCSCc3ccccc3F)CC2)c1 | inactive: 101%
CCn1ccc2c(OCC(=O)Nc3ccc(C)c(Cl)c3)cccc2c1=O | inactive: 60%
CCOC(=O)C1CCN(S(=O)(=O)c2cc3c4c(c2)C(C)C(=O)N4CCC3)CC1 (centres undefined) | inactive: 98%
Cc1cccc(C(=O)Nc2c(C(=O)N3CCN(c4ccc(F)cc4)CC3)oc3ccccc23)c1 | inactive: 89%
CC1Cc2cc(C(=O)NC3CCCCC3)ccc2O1 (centres undefined) | inactive: 71%
O=C(Cc1ccc(Cl)cc1)NCC(c1cccs1)S(=O)(=O)c1ccccc1 (centres undefined) | inactive: 55%
CCCSc1ncc(Cl)c(C(=O)Nc2sc(C(C)=O)c(C)c2C(=O)OCC)n1 | inactive: 51%
Cc1ccc(S(=O)(=O)N(CC(=O)Nc2ccc(F)cc2F)Cc2ccc(F)cc2)cc1 | inactive: 62%
O=C(CCn1c(=O)c2cccn2c2cccnc21)N1CCN(c2ccc(F)cc2)CC1 | inactive: 88%
COc1ccccc1CCNC(=O)Cn1ccc2cc(S(=O)(=O)N3CCCCC3)ccc21 | inactive: 66%
